# Test results from the supplement of paper PMC8728848.
# Some of the results follow.
# B1: mCC1-Hexahis-Precomplexed (Mus musculus), P31809 (protein)
# chain: MELASAHLHKGQVPWGGLLLTASLLASWSPATTAEVTIEAVPPQVAEDNNVLLLVHNLPLALGAFAWYKGNTTAIDKEIARFVPNSNMNFTGQAYSGREIIYSNGSLLFQMITMKDMGVYTLDMTDENYRRTQATVRFHVHPILLKPNITSNNSNPVEGDDSVSLTCDSYTDPDNINYLWSRNGESLSEGDRLKLSEGNRTLTLLNVTRNDTGPYVCETRNPVSVNRSDPFSLNIIYGPDTPIISPSDIYLHPGSNLNLSCHAASNPPAQYFWLINEKPHASSQELFIPNITTNNSGTYTCFVNNSVTGLSRTTVKNITVLEPVTQPFLQVTNTTVKELDSVTLTCLSNDIGANIQWLFNSQSLQLTERMTLSQNNSILRIDPIKREDAGEYQCEISNPVSVRRSNSIKLDIIFDPTQGGLSDGHHHHHH
# How the values were obtained:
# Experiment in all cases: glycan array binding signal (z-score within array); higher = stronger binding
# Conditions in all cases: glycan notation: IUPAC condensed, linker removed
# Fuc(a1-2)Gal = target: Fuc(a1-2)Gal
# Method in brief: (§1)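 Arrays were curated from the Consortium for Functional Glycomics database, 3228 in total, and kept only where the protein sequence was available. Binding is expressed as a within-array Z-score. This score was averaged across arrays of the same protein sequence at different concentrations or buffers and across linkers, and negative values can be read as non-binding.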
# Fuc(a1-2)Gal(b1-3)GalNAc = target: Fuc(a1-2)Gal(b1-3)GalNAc
# Method in brief: as §1
# [1] = target: Fuc(a1-2)Gal(b1-3)GalNAc(a1-3)[Fuc(a1-2)]Gal(b1-4)Glc
# Method in brief: as §1
# [2] = target: Fuc(a1-2)Gal(b1-3)GalNAc(a1-3)[Fuc(a1-2)]Gal(b1-4)GlcNAc
# Method in brief: as §1
# [3] = target: Fuc(a1-2)Gal(b1-3)GalNAc(b1-3)Gal
# Method in brief: as §1
# [4] = target: Fuc(a1-2)Gal(b1-3)GalNAc(b1-3)Gal(a1-4)Gal(b1-4)Glc
# Method in brief: as §1
# [5] = target: Fuc(a1-2)Gal(b1-3)GalNAc(b1-4)[Neu5Ac(a2-3)]Gal(b1-4)Glc
# Method in brief: as §1
# Fuc(a1-2)Gal(b1-3)GlcNAc = target: Fuc(a1-2)Gal(b1-3)GlcNAc
# Method in brief: as §1
# [6] = target: Fuc(a1-2)Gal(b1-3)GlcNAc(b1-2)Man(a1-3)[Fuc(a1-2)Gal(b1-3)GlcNAc(b1-2)Man(a1-6)]Man(b1-4)GlcNAc(b1-4)GlcNAc
# Method in brief: as §1
# [7] = target: Fuc(a1-2)Gal(b1-3)GlcNAc(b1-2)Man(a1-3)[Fuc(a1-2)Gal(b1-3)GlcNAc(b1-2)Man(a1-6)]Man(b1-4)GlcNAc(b1-4)[Fuc(a1-6)]GlcNAc
# Method in brief: as §1
# [8] = target: Fuc(a1-2)Gal(b1-3)GlcNAc(b1-3)Gal(b1-4)Glc
# Method in brief: as §1
# [9] = target: Fuc(a1-2)Gal(b1-3)GlcNAc(b1-3)GalNAc
# Method in brief: as §1
# [10] = target: Fuc(a1-2)Gal(b1-3)GlcNAc(b1-3)[Fuc(a1-2)Gal(b1-3)GlcNAc(b1-6)]GalNAc
# Method in brief: as §1
# [11] = target: Fuc(a1-2)Gal(b1-3)GlcNAc(b1-3)[Gal(b1-4)GlcNAc(b1-6)]Gal(b1-4)Glc
# Method in brief: as §1
# [12] = target: Fuc(a1-2)Gal(b1-3)GlcNAc(b1-3)[Neu5Ac(a2-6)Gal(b1-4)GlcNAc(b1-6)]Gal(b1-4)Glc
# Method in brief: as §1
# [13] = target: Fuc(a1-2)Gal(b1-3)GlcNAc6S
# Method in brief: as §1
# [14] = target: Fuc(a1-2)Gal(b1-3)[Fuc(a1-4)]GlcNAc
# Method in brief: as §1
# [15] = target: Fuc(a1-2)Gal(b1-3)[Fuc(a1-4)]GlcNAc(b1-2)Man(a1-3)[Fuc(a1-2)Gal(b1-3)[Fuc(a1-4)]GlcNAc(b1-2)Man(a1-3)]Man(b1-4)GlcNAc(b1-4)GlcNAc
# Method in brief: as §1
# [16] = target: Fuc(a1-2)Gal(b1-3)[Fuc(a1-4)]GlcNAc(b1-2)Man(a1-3)[Fuc(a1-2)Gal(b1-3)[Fuc(a1-4)]GlcNAc(b1-2)Man(a1-6)]Man(b1-4)GlcNAc(b1-4)[Fuc(a1-6)]GlcNAc(b1-4)[Fuc(a1-6)]GlcNAc
# Method in brief: as §1
# [17] = target: Fuc(a1-2)Gal(b1-3)[Fuc(a1-4)]GlcNAc(b1-3)[Fuc(a1-3)[Gal(b1-4)]GlcNAc(b1-6)]Gal(b1-4)Glc
# Method in brief: as §1
# [18] = target: Fuc(a1-2)Gal(b1-3)[Fuc(a1-4)]GlcNAc(b1-3)[Gal(b1-4)GlcNAc(b1-6)]Gal(b1-4)Glc
# Method in brief: as §1
# [19] = target: Fuc(a1-2)Gal(b1-4)Fuc(a1-3)]GlcNAc(b1-2)Man(a1-3)[Fuc(a1-2)Gal(b1-4)[Fuc(a1-3)]GlcNAc(b1-2)Man(a1-6)]Man(b1-4)GlcNAc(b1-4)GlcNAc
# Method in brief: as §1
# Fuc(a1-2)Gal(b1-4)Glc = target: Fuc(a1-2)Gal(b1-4)Glc
# Method in brief: as §1
# Fuc(a1-2)Gal(b1-4)Glc6S = target: Fuc(a1-2)Gal(b1-4)Glc6S
# Method in brief: as §1
# Fuc(a1-2)Gal(b1-4)GlcNAc = target: Fuc(a1-2)Gal(b1-4)GlcNAc
# Method in brief: as §1
# [20] = target: Fuc(a1-2)Gal(b1-4)GlcNAc(b1-2)Man
# Method in brief: as §1
# [21] = target: Fuc(a1-2)Gal(b1-4)GlcNAc(b1-2)Man(a1-3)[Fuc(a1-2)Gal(b1-4)GlcNAc(b1-2)Man(a1-6)]Man(b1-4)GlcNAc(b1-4)GlcNAc
# Method in brief: as §1
# [22] = target: Fuc(a1-2)Gal(b1-4)GlcNAc(b1-2)Man(a1-3)[Fuc(a1-2)Gal(b1-4)GlcNAc(b1-2)Man(a1-6)]Man(b1-4)GlcNAc(b1-4)[Fuc(a1-6)]GlcNAc
# Method in brief: as §1
# [23] = target: Fuc(a1-2)Gal(b1-4)GlcNAc(b1-2)[Fuc(a1-2)Gal(b1-4)GlcNAc(b1-4)]Man(a1-3)[Fuc(a1-2)Gal(b1-4)GlcNAc(b1-2)Man(a1-6)]Man(b1-4)GlcNAc(b1-4)GlcNAc
# Method in brief: as §1
# [24] = target: Fuc(a1-2)Gal(b1-4)GlcNAc(b1-3)Gal(b1-4)GlcNAc
# Method in brief: as §1
# [25] = target: Fuc(a1-2)Gal(b1-4)GlcNAc(b1-3)Gal(b1-4)GlcNAc(b1-2)Man(a1-3)[Fuc(a1-2)Gal(b1-4)GlcNAc(b1-3)Gal(b1-4)GlcNAc(b1-2)Man(a1-6)]Man(b1-4)GlcNAc(b1-4)GlcNAc
# Method in brief: as §1
# [26] = target: Fuc(a1-2)Gal(b1-4)GlcNAc(b1-3)Gal(b1-4)GlcNAc(b1-3)Gal(b1-4)GlcNAc
# Method in brief: as §1
# [27] = target: Fuc(a1-2)Gal(b1-4)GlcNAc(b1-3)GalNAc
# Method in brief: as §1
# [28] = target: Fuc(a1-2)Gal(b1-4)GlcNAc(b1-3)[Fuc(a1-2)Gal(b1-4)GlcNAc(b1-6)]GalNAc
# Method in brief: as §1
# [29] = target: Fuc(a1-2)Gal(b1-4)GlcNAc(b1-3)[Fuc(a1-3)[Gal(b1-4)]GlcNAc(b1-6)]Gal(b1-4)Glc
# Method in brief: as §1
# [30] = target: Fuc(a1-2)Gal(b1-4)GlcNAc(b1-6)GalNAc
# Method in brief: as §1
# [31] = target: Fuc(a1-2)Gal(b1-4)GlcNAc6S
# Method in brief: as §1
binder,measurement,setting,value
B1,glycan array binding signal (z-score),Fuc(a1-2)Gal,-0.259
same,glycan array binding signal (z-score),Fuc(a1-2)Gal(b1-3)GalNAc,-0.158
same,glycan array binding signal (z-score),[1],-0.101
same,glycan array binding signal (z-score),[2],-0.214
same,glycan array binding signal (z-score),[3],-0.135
same,glycan array binding signal (z-score),[4],-0.267
same,glycan array binding signal (z-score),[5],-0.199
same,glycan array binding signal (z-score),Fuc(a1-2)Gal(b1-3)GlcNAc,-0.229
same,glycan array binding signal (z-score),[6],0.072
same,glycan array binding signal (z-score),[7],-0.146
same,glycan array binding signal (z-score),[8],-0.182
same,glycan array binding signal (z-score),[9],-0.245
same,glycan array binding signal (z-score),[10],-0.141
same,glycan array binding signal (z-score),[11],-0.302
same,glycan array binding signal (z-score),[12],-0.125
same,glycan array binding signal (z-score),[13],0.07
same,glycan array binding signal (z-score),[14],-0.166
same,glycan array binding signal (z-score),[15],0.048
same,glycan array binding signal (z-score),[16],0.069
same,glycan array binding signal (z-score),[17],-0.173
same,glycan array binding signal (z-score),[18],-0.075
same,glycan array binding signal (z-score),[19],0.152
same,glycan array binding signal (z-score),Fuc(a1-2)Gal(b1-4)Glc,-0.182
same,glycan array binding signal (z-score),Fuc(a1-2)Gal(b1-4)Glc6S,-0.226
same,glycan array binding signal (z-score),Fuc(a1-2)Gal(b1-4)GlcNAc,-0.269
same,glycan array binding signal (z-score),[20],-0.232
same,glycan array binding signal (z-score),[21],0.061
same,glycan array binding signal (z-score),[22],0.228
same,glycan array binding signal (z-score),[23],0.23
same,glycan array binding signal (z-score),[24],-0.283
same,glycan array binding signal (z-score),[25],-0.129
same,glycan array binding signal (z-score),[26],-0.228
same,glycan array binding signal (z-score),[27],-0.208
same,glycan array binding signal (z-score),[28],-0.018
same,glycan array binding signal (z-score),[29],-0.163
same,glycan array binding signal (z-score),[30],0.015
same,glycan array binding signal (z-score),[31],-0.259
